The list shows a part of the results.

For this test, the system named is PfAP2-HC AP2 domain (GST-tagged). Kind of test: gcPBM binding intensity (ln(normalized median fluorescence intensity)); higher = stronger DNA binding. An outline of the steps: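 Binding intensity is the highest Masliner-normalised natural-log median intensity over replicate spots in either probe orientation. To obtain it, GST-tagged P. falciparum DNA-binding domains made in E. coli were incubated for 1 h on an Agilent 4 × 180k array of primer-extended double-stranded 36-bp intergenic genomic probes plus negative controls. Detection used Alexa488 anti-GST antibody with scanning at 488 nm.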
Take “AATGAAAAATTGTAATGTACATAAATAAATAAATAA [XGTACX_site4048]”: the “gcPBM binding intensity (ln)” value was 9.87.
For “TACAATATACCTACTTGTACACAAAATAAAAGTAGT [XGTACX_site6029]”, the “gcPBM binding intensity (ln)” value was found to be 9.68.
Turning to “TTTTATATAAATATCACACACACACGCATGTTTTAA [CACACA_site6187]”, the “gcPBM binding intensity (ln)” value was found to be 10.4.
Take “TACACACCTAACTATGCATGCATCAATATAGTGGAT [TGCATGCA_site443]”: the “gcPBM binding intensity (ln)” value amounted to 9.74.
For the sequence “AAAAGCTTAAAAAATTGTACATAAATGAATAAATAT [XGTACX_site5201]”, the “gcPBM binding intensity (ln)” value was found to be 9.66.
As to “AAAAATAAAACAATTACACACATAACTTTATTTTTA [CACACA_site6563]”, the “gcPBM binding intensity (ln)” value turned out to be 9.8.
With “ACAAATGGAACTCCTACAAAAAATTTCCATAATATT [XGTACX_negctrl_site132]”, the “gcPBM binding intensity (ln)” value was determined as 9.6.
For “TAAACCTATTATACGGGTACTTATTTGATTCTTATA [XGTACX_site5292]” the value was 9.59.
On to “ACCACCATATAACATACATGCATCTTTTTTCCCTTC [TGCATGCA_site583]”, for which the “gcPBM binding intensity (ln)” value amounted to 10.1.
As to “GAACTCATTTAATATTGTACATTCTGATATTTTTTA [XGTACX_site5995]”, the “gcPBM binding intensity (ln)” value is 10.
The value for “TCTTGTTAATATATTAAATATATCTATAAATATATA [XGTACX_negctrl_site486]” was 9.66; that for “TATATACATACATATACACACATATATATATATATA [CACACA_site401]” was 9.77; that for “GTATAAAATATTGATTGTACTTTATTCATTTTTTTT [XGTACX_site2520]” was 9.56.
Consider “TCATATTCCAAGTGTACACATAAATCCCTAATAACA [CACACA_site5167]”, for which the “gcPBM binding intensity (ln)” value was found to be 9.61.
As to “TCATTGTTTAATATGTGTCCTCAAAATTTGTTATAT [XGTACX_site677]”, the “gcPBM binding intensity (ln)” value is 9.61.
With “ACAATTCATTAGAATTGTACAAAAGGATGAAGCGAA [XGTACX_site5242]”, the “gcPBM binding intensity (ln)” value amounted to 9.92.
For “ATTTAATACAAATACACACACAAATATGTACCTATA [CACACA_site7718]” the value was 10.3; for “ATTTTTTTTTTTTAATTTGATATTTGCGTTTATATA [CACACA_negctrl_site1305]”, 9.71.
For “CATTTAGTTCATACTATGCACACTACGTATATTTTT [CACACA_site2694]” the value was 10; for “AATGCACAGCTCTTAGGCAAAAGTGGGTATTTACAC [GTGCAC_negctrl_site579]”, 9.62; for “TGTATAAAAAACTAATGTACAAATGACAAGATATCT [XGTACX_site4600]”, 9.65.
For the sequence “AAAAAATGTTAAAAAAGTACTTTCTTTATTTAATAA [XGTACX_site2908]”, the “gcPBM binding intensity (ln)” value stood at 9.45.
The value for “AACAATTGTTAAAGGTGTACCATATGTATATAAGAA [XGTACX_site5723]” was 9.8.
The value for “AGACGTAATAATTGTTGTACATAAAAAAATAAGAAA [XGTACX_site7594]” was 9.8; that for “TGTGTTAGCAAAAAAGTGCACAGGGAAAAAAAAATA [GTGCAC_site9397]” was 9.8.
In the case of “ATGATATTATAAAAAAGTACATATGTATATAATTAT [XGTACX_site7652]”, the “gcPBM binding intensity (ln)” value came out at 9.89.
Turning to “TTTTGTTATGGTTTGATGCACTTATATATAAATATT [GTGCAC_site9705]”, the “gcPBM binding intensity (ln)” value is 9.86.
In the case of ATGTAGATAAAACGTGTGCACATGTTTTTTGTTATT, the “gcPBM binding intensity (ln)” value is 10.5.
For “CACAGTGATATAAAAACACACATGAATTATAATTTC [CACACA_site1667]” the value was 9.75.
On to “ATATATATATATATATGTACTTATTACCAATGTTAG [XGTACX_site1896]”, for which the “gcPBM binding intensity (ln)” value turned out to be 9.56.
For “AAGCCCATTATTAAATGTACAAAATTTTATAAACTA [XGTACX_site7800]” the value was 9.35.
As for “TAAAACATATATACAAGTACACAAAGGATATATATA [XGTACX_site3710]”, the “gcPBM binding intensity (ln)” value amounted to 9.85.
For “GTATATATGTATATATGTACATATATATAATATATT [XGTACX_site56]” the value was 9.63.
As for “CAGTGCCAAATTAGCACACACATATATACATGAATT [CACACA_site2814]”, the “gcPBM binding intensity (ln)” value was 9.93.
“TATAGGTATTTATATACACACATATTCTTTTTACAC [CACACA_site6686]”: the “gcPBM binding intensity (ln)” value turned out to be 9.92.
Turning to “AAATTAAAATAAAAATGTACATATAAAGACACAACT [XGTACX_site3132]”, the “gcPBM binding intensity (ln)” value was determined as 10.2.
For “CTTACCAAAAGACACACACACACAAGATATATAAAT [CACACA_site6964]”, the “gcPBM binding intensity (ln)” value is 10.4.
Regarding “TACAATATTTTGAGACGTACATATATACATTTACAT [XGTACX_site5880]”, the “gcPBM binding intensity (ln)” value is 9.84.
As for “TGAACTTACTTGGACATACACACATATATATATATA [CACACA_site2977]”, the “gcPBM binding intensity (ln)” value stood at 9.85.
Regarding “TATATATATATACCAACACACATACAGATATATATA [CACACA_site5060]”, the “gcPBM binding intensity (ln)” value was 10.1.
Turning to “TTTATATACAAAAATGCACACGAAAAGTAATATATA [CACACA_site9387]”, the “gcPBM binding intensity (ln)” value is 9.8.
Turning to “TGTAAGTCGTTATAAGCACACACATAAATAAAAATA [CACACA_site8448]”, the “gcPBM binding intensity (ln)” value was 9.99.
The value for “ATTTAAATACAAAATTGTACTTTTCTATATTTAACA [XGTACX_site6146]” was 9.55; that for “AAATTTTAAATAGTATGTACGTATGAAATATATATG [XGTACX_site7511]” was 9.7.
With “ACCCATTTAACAAAATGTACATTATTATAATTACTT [XGTACX_site7105]”, the “gcPBM binding intensity (ln)” value is 9.72.
As to “TTTGGAAAAAAATTATTTAAACGATATGAATTGATG [XGTACX_negctrl_site506]”, the “gcPBM binding intensity (ln)” value amounted to 9.38.
On to “AAAATTTTACAGAAGGTGCGTATATTTTCCTGCTTA [GTGCAC_site9643]”, for which the “gcPBM binding intensity (ln)” value turned out to be 9.65.
As to “AATCATCTCATAAAAATTAATTAGTGTATGTCTTTT [TGCATGCA_negctrl_site416]”, the “gcPBM binding intensity (ln)” value was determined as 9.6.
Turning to “CTACTTATAAATAGAACACACATAAGTGTATTTGTA [CACACA_site3759]”, the “gcPBM binding intensity (ln)” value is 9.64.
Regarding “ACAATATAGATTAAAAGTACAAATAGTAAATTATAT [XGTACX_site3165]”, the “gcPBM binding intensity (ln)” value worked out at 9.85.
For the sequence “TCTTAAATATATAAATTGAAAAATATAAAAGTAATA [CACACA_negctrl_site1558]”, the “gcPBM binding intensity (ln)” value worked out at 9.19.
For “AAAACAATATACTGTAGTACTGATGATATATATATA [XGTACX_site7798]” the value was 9.8.
For the sequence “ATAAAAAAAAATAGCACACATAAATATATTATATAT [CACACA_site767]”, the “gcPBM binding intensity (ln)” value was 10.1.
The value for “AAAAAATACCTCTATAGTACATATATATAATATTTA [XGTACX_site7222]” was 9.58; that for “AAAAAAAATTTATTTGCATGCAAAAAAAAAAAAAAA [TGCATGCA_site67]” was 9.39; that for “TAATTATGTATGAACTGTACAGGTTATTTTATTTTA [XGTACX_site5204]” was 9.61.

The record behind these values is the supplement of paper PMC11417369.
